According to patent US20250144178A1, “PHARMACEUTICAL COMPOSITION FOR CANCER TREATMENT COMPRISING FUSION PROTEIN INCLUDING IL-12 AND ANTI-FAP ANTIBODY AND ANTICANCER AGENT” (KANAPH THERAPEUTICS INC., priority 2022, published 2025):

T1: recombinant human FAP (Homo sapiens, UniProt Q12884)
T1 sequence (Q12884 1-760): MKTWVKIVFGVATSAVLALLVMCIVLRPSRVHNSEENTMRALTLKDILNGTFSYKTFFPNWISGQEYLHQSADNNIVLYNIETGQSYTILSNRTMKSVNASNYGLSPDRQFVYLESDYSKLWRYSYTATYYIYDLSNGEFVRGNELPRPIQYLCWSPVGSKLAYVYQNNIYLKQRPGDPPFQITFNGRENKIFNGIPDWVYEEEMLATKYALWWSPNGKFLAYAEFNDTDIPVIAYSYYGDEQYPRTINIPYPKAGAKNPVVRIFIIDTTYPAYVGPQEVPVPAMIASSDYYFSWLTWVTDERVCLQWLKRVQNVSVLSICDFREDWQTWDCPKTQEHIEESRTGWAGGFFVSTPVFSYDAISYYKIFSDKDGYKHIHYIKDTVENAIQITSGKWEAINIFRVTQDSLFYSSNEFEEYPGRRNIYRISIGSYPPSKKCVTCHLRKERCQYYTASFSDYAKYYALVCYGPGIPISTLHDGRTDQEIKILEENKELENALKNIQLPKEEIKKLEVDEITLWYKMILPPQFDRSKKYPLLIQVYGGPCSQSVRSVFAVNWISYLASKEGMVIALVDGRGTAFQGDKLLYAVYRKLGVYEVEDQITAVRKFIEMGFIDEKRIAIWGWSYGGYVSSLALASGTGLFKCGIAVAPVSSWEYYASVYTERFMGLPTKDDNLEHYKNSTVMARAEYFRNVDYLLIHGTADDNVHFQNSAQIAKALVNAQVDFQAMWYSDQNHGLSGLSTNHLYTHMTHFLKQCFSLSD


Target: T1, recombinant human FAP
Assay: Surface plasmon resonance binding to recombinant human FAP
Settings: SPR, 1:1 binding model, protein captured by anti-human IgG (Fc), analyte human FAP
Description: Specifically, the surface of the CM5 chip was activated with a 1:1 mixture of […] NHS (N-hydroxysuccinimide) and […] EDC (1-Ethyl-3-(3-dimethylaminopropyl) carbodiimide), and 25 μg/ml of anti-human IgG (Fc) antibody was immobilized for 400 seconds at a rate of 10 μl/min. The remaining active ester groups were blocked with 1 M ethanolamine. T1.01, T1.02 and T1.03 were diluted to 2 μg/ml and reacted on the CM5 chip immobilized with the anti-human IgG (Fc) antibody. The recombinant human FAP was diluted to 200 nM in 1×HBS-EP+buffer solution and diluted by serial dilution. The diluted recombinant human FAP was reacted at a rate of 30 μl/min. The association and dissociation times were 180 seconds and 400 seconds, respectively. After the dissociation, stabilization was performed for 60 seconds, and then a regeneration was performed for 30 seconds with a 10 mM glycine pH 1.5 solution at a rate of 30 μl/min.
Bindings of T1.04, T1.05, T1.06, T1.07, T1.08, T1.09, T1.10 and T1.11 to recombinant human […] were identified by surface plasmon resonance (SPR). The surface of the CM5 chip was activated with a 1:1 mixture of […] (N-hydroxysuccinimide) and […] (1-Ethyl-3-(3-dimethylaminopropyl) carbodiimide), and 25 μg/ml of anti-human IgG (Fc) antibody was immobilized for 400 seconds at a rate of 10 μl/min. The remaining active ester groups were blocked with 1 M ethanolamine.
Specifically, human proteins T1.04, T1.05, T1.06, T1.07, T1.08, T1.09, T1.10 and T1.11 were diluted to 1 μg/ml, 1 μg/ml, 1 μg/ml, 1 μg/ml, 0.5 μg/ml, 0.5 μg/ml, 0.5 μg/ml, and 1 μg/ml, respectively, and reacted on a CM5 chip immobilized with an anti-human IgG (Fc) antibody. The recombinant human FAP was diluted to 25 nM or 50 nM in 1×HBS-EP+buffer solution and diluted by serial dilution. The diluted recombinant human FAP was reacted at a rate of 30 μl/min. The association and dissociation times were 180 seconds and 400 seconds, respectively. After the dissociation, stabilization was performed for 60 seconds, and then a regeneration was performed for 30 seconds with a 10 mM glycine pH 1.5 solution at a rate of 30 μl/min.

Molecule | ka | kd
T1.04: K&H: anti-hu FAP (DVD-Ig)/hu IL-12, hu IgG1 DANG (2 + 1) (seq3, seq6, seq7) (antibody) heavy: QVQLVQSGAEVKKPGASVKVSCKTSRYTFTEYTIHWVRQAPGQRLEWIGGINPNNGIPNYNQKFKGRVTITVDTSASTAYMELSSLRSEDTAVYYCARRRIAYGYDEGHAMDYWGQGTLVTVSSGGGGSGGGGSGGGGSQVQLVQSGAEVKKPGASVKVSCKTSRYTFTEYTIHWVRQAPGQRLEWIGGINPNNGIPNYNQKFKGRVTITVDTSASTAYMELSSLRSEDTAVYYCARRRIAYGYDEGHAMDYWGQGTLVTVSSASTKGPSVFPLAPSSKSTSGGTAALGCLVKDYFPEPVTVSWNSGALTSGVHTFPAVLQSSGLYSLSSVVTVPSSSLGTQTYICNVNHKPSNTKVDKKVEPKSCDKTHTCPPCPAPELLGGPSVFLFPPKPKDTLMISRTPEVTCVVVAVSHEDPEVKFNWYVDGVEVHNAKTKPREEQYGSTYRVVSVLTVLHQDWLNGKEYKCKVSNKALPAPIEKTISKAKGQPREPQVYTLPPSRDELTKNQVSLWCLVKGFYPSDIAVEWESNGQPENNYKTTPPVLDSDGSFFLYSKLTVDKSRWQQGNVFSCSVMHEALHNHYTQKSLSLSPGK light: DIVMTQSPDSLAVSLGERATINCKSSQSLLYSRNQKNYLAWYQQKPGQPPKLLIFWASTRESGVPDRFSGSGFGTDFTLTISSLQAEDVAVYYCQQYFSYPLTFGQGTKVEIKGGGGSGGGGSGGGGSDIVMTQSPDSLAVSLGERATINCKSSQSLLYSRNQKNYLAWYQQKPGQPPKLLIFWASTRESGVPDRFSGSGFGTDFTLTISSLQAEDVAVYYCQQYFSYPLTFGQGTKVEIKRTVAAPSVFIFPPSDEQLKSGTASVVCLLNNFYPREAKVQWKVDNALQSGNSQESVTEQDSKDSTYSLSSTLTLSKADYEKHKVYACEVTHQGLSSPVTKSFNRGEC IWELKKDVYVVELDWYPDAPGEMVVLTCDTPEEDGITWTLDQSSEVLGSGKTLTIQVKEFGDAGQYTCHKGGEVLSHSLLLLHKKEDGIWSTDILKDQKEPKNKTFLRCEAKNYSGRFTCWWLTTISTDLTFSVKSSRGSSDPQGVTCGAATLSAERVRGDNKEYEYSVECQEDSACPAAEESLPIEVMVDAVHKLKYENYTSSFFIRDIIKPDPPKNLQLKPLKNSRQVEVSWEYPDTWSTPHSYFSLTFCVQVQGKSKREKKDRVFTDKTSATVICRKNASISVRAQDRYYSSSWSEWASVPCSGGGGSGGGGSGGGGSRNLPVATPDPGMFPCLHHSQNLLRAVSNMLQKARQTLEFYPCTSEEIDHEDITKDKTSTVEACLPLELTKNESCLNSRETSFITNGSCLASRKTSFMMALCLSSIYEDLKMYQVEFKTMNAKLLMDPKRQIFLDQNMLAVIDELMQALNFNSETVPQKSSLEEPDFYKTKIKLCILLHAFRIRAVTIDRVMSYLNASGGGGSGGGGS[skipping human IgG1 Fc with changes] | 583000 M⁻¹ s⁻¹ | 1.5e-05 s⁻¹
T1.05: K&H: anti-hu FAP (DVD-Ig)/hu IL-12 mut2, hu IgG1 DANG (2 + 1) (seq5, seq6, seq7) (antibody) heavy: QVQLVQSGAEVKKPGASVKVSCKTSRYTFTEYTIHWVRQAPGQRLEWIGGINPNNGIPNYNQKFKGRVTITVDTSASTAYMELSSLRSEDTAVYYCARRRIAYGYDEGHAMDYWGQGTLVTVSSGGGGSGGGGSGGGGSQVQLVQSGAEVKKPGASVKVSCKTSRYTFTEYTIHWVRQAPGQRLEWIGGINPNNGIPNYNQKFKGRVTITVDTSASTAYMELSSLRSEDTAVYYCARRRIAYGYDEGHAMDYWGQGTLVTVSSASTKGPSVFPLAPSSKSTSGGTAALGCLVKDYFPEPVTVSWNSGALTSGVHTFPAVLQSSGLYSLSSVVTVPSSSLGTQTYICNVNHKPSNTKVDKKVEPKSCDKTHTCPPCPAPELLGGPSVFLFPPKPKDTLMISRTPEVTCVVVAVSHEDPEVKFNWYVDGVEVHNAKTKPREEQYGSTYRVVSVLTVLHQDWLNGKEYKCKVSNKALPAPIEKTISKAKGQPREPQVYTLPPSRDELTKNQVSLWCLVKGFYPSDIAVEWESNGQPENNYKTTPPVLDSDGSFFLYSKLTVDKSRWQQGNVFSCSVMHEALHNHYTQKSLSLSPGK light: DIVMTQSPDSLAVSLGERATINCKSSQSLLYSRNQKNYLAWYQQKPGQPPKLLIFWASTRESGVPDRFSGSGFGTDFTLTISSLQAEDVAVYYCQQYFSYPLTFGQGTKVEIKGGGGSGGGGSGGGGSDIVMTQSPDSLAVSLGERATINCKSSQSLLYSRNQKNYLAWYQQKPGQPPKLLIFWASTRESGVPDRFSGSGFGTDFTLTISSLQAEDVAVYYCQQYFSYPLTFGQGTKVEIKRTVAAPSVFIFPPSDEQLKSGTASVVCLLNNFYPREAKVQWKVDNALQSGNSQESVTEQDSKDSTYSLSSTLTLSKADYEKHKVYACEVTHQGLSSPVTKSFNRGEC IWELKKDVYVVELDWYPDAPGEMVVLTCDTPEEDGITWTLDQSSEVLGSGKTLTIQVKEFGDAGQYTCHKGGEVLSHSLLLLHKKEDGIWSTDILKDQKEPKNKTFLRCEAKNYSGRFTCWWLTTISTDLTFSVKSSRGSSDPQGVTCGAATLSAERVRGDNKEYEYSVECQEDSACPAAEESLPIEVMVDAVHKLKYENYTSSFFIRDIIKPDPPKNLQLKPLKNSRQVEVSWEYPDTWSTPHSYFSLTFCVQVQGASAREAADRVFTDKTSATVICRKNASISVRAQDRYYSSSWSEWASVPCSGGGGSGGGGSGGGGSRNLPVATPDPGMFPCLHHSQNLLRAVSNMLQKARQTLEFYPCTSEEIDHEDITKDKTSTVEACLPLELTKNESCLNSRETSFITNGSCLASRKTSFMMALCLSSIYEDLKMYQVEFKTMNAKLLMDPKRQIFLDQNMLAVIDELMQALNFNSETVPQKSSLEEPDFYKTKIKLCILLHAFRIRAVTIDRVMSYLNASGGGGSGGGGS[skipping human IgG1 Fc with changes] | 625000 M⁻¹ s⁻¹ | 5.83e-05 s⁻¹
